Measured values as given in the supplement of paper PMC9446081.
About 220 (0.56%) of roughly 39,000 compounds showed activity. Some of the results follow.
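Also: static incubation at 37 °C against the wild-type strain, values averaged over two biological replicates.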

What follows are compounds tested on Escherichia coli K-12 BW25113 (assay: relative growth (OD600 normalised to plate interquartile mean) (fraction); higher = less growth inhibition, active = 0.2 or less). Conditions: 50 µM; LB; incubation time: overnight (16-24 h).
For C[C@H]1CN([C@@H](C)CO)C(=O)c2cc(NS(=O)(=O)c3ccccc3)ccc2O[C@H]1CN(C)S(=O)(=O)c1ccccc1, the relative growth was inactive: 1.03. C[C@@H]1CCCCO[C@@H](CN(C)Cc2ccncc2)[C@H](C)CN([C@@H](C)CO)C(=O)c2cc(NC(=O)NC3CCCCC3)ccc2O1 was tested, and the relative growth was inactive: 1.03. In the case of Cc1noc(C)c1NC(=O)N(C)C[C@H]1OCCCC[C@@H](C)Oc2ccc(NC(=O)C3CCCCC3)cc2C(=O)N([C@H](C)CO)C[C@@H]1C, the relative growth is reported as inactive: 0.982. With COc1ccc(NC(=O)N(C)C[C@@H]2OCCCC[C@@H](C)Oc3ccc(NS(=O)(=O)c4ccc(Cl)cc4)cc3C(=O)N([C@H](C)CO)C[C@H]2C)cc1 the relative growth was inactive: 1.02. C[C@@H]1CN([C@@H](C)CO)C(=O)c2cc(NC(=O)C3CCCCC3)ccc2O[C@@H](C)CCCCO[C@@H]1CN(C)S(=O)(=O)c1ccc(Cl)cc1 was tested, and the relative growth was inactive: 1.02. For CC(=O)N1CCN(CC(=O)NS(=O)(=O)c2ccccc2)CC1, the relative growth was inactive: 0.989. For CC[C@@H](C)n1ncn(-c2ccc(N3CCN(c4ccc(OC[C@H]5CO[C@](Cn6cncn6)(c6ccc(Cl)cc6Cl)O5)cc4)CC3)cc2)c1=O, the relative growth was inactive: 0.999. For C[C@@H]1CCCCO[C@@H](CN(C)C(=O)Nc2ccccc2)[C@H](C)CN([C@H](C)CO)C(=O)c2cc(NC(=O)Nc3ccccc3)ccc2O1, the relative growth was inactive: 0.99. CN1CCN(C(=O)C[C@@H]2CC[C@H]3[C@@H](COC[C@@H](O)CN3C(=O)C3CC3)O2)CC1 was tested, and the relative growth was inactive: 1.01. With CC(C)C[C@@H]1NC(=O)[C@@H]2C[C@H](C(=O)NCCCCCNC(=O)CS)[C@H](c3cccc(OCCO)c3)N2C1=O the relative growth was inactive: 1. For CCCCCCCCCCCCCCCC(=O)OCC(NC(=O)C(Cl)Cl)C(O)c1ccc([N+](=O)[O-])cc1 (stereo not drawn), the relative growth was inactive: 0.559. For C#CCCCCCCCCCCCC(O)CC(O)COC(C)=O.C=CCCCCCCCCCCCC(O)CC(O)COC(C)=O (stereo not drawn), the relative growth was inactive: 1.03. In the case of O=C(O)c1cnn2c1CCCC2, the relative growth is reported as inactive: 0.987. With COc1ccc2c3c(n(c2c1)C)[C@@H](CO)N(C[C@]13CN(C1)C(=O)Cc1ccccc1)C(=O)c1ccccn1 the relative growth was inactive: 0.996. Cc1nnc(SCC2=C(C(=O)O)N3C(=O)[C@@H](N)[C@H]3SC2)s1 was tested, and the relative growth was inactive: 1. C[C@@H]1CN([C@@H](C)CO)C(=O)c2cccc(NS(=O)(=O)c3ccc(F)cc3)c2O[C@@H]1CN(C)S(=O)(=O)c1ccc(F)cc1 was tested, and the relative growth was inactive: 1.02. With C[C@@H]1CCCCO[C@@H](CN(C)Cc2ccc(C(F)(F)F)cc2)[C@@H](C)CN([C@H](C)CO)C(=O)c2cc(NC(=O)Nc3ccc(C(F)(F)F)cc3)ccc2O1 the relative growth was inactive: 1.01. For C[C@@H]1CN([C@@H](C)CO)S(=O)(=O)c2ccc(Br)cc2O[C@H]1CN(C)S(=O)(=O)c1ccccc1, the relative growth was inactive: 0.935. For C[C@@H]1CN([C@@H](C)CO)C(=O)Cc2cc(NC(=O)Cc3cn(C)c4ccccc34)ccc2O[C@@H]1CN(C)Cc1ccc(Cl)c(Cl)c1, the relative growth was inactive: 0.998. For C[C@@H]1CN([C@@H](C)CO)C(=O)c2cc(NC(=O)Nc3ccccc3)ccc2O[C@@H]1CN(C)Cc1ccc(-c2ccccc2)cc1, the relative growth was inactive: 1.02. In the case of O=C(C[C@@H]1CC=CCC[C@@H](Cc2ccc(F)cc2)C(=O)OCCNC1=O)N[C@@H](CO)Cc1ccccc1, the relative growth is reported as inactive: 0.999. C[C@@H]1CN([C@H](C)CO)C(=O)c2cc(NC(=O)C3CCCCC3)ccc2O[C@@H]1CN(C)Cc1ccc(C(=O)Nc2ccccc2N)cc1 was tested, and the relative growth was inactive: 0.984. In the case of Cc1cc(C)n2nc(CCCO)nc2n1, the relative growth is reported as inactive: 0.97. For C[C@@H]1CCCCO[C@H](CN(C)S(=O)(=O)c2ccccc2)[C@@H](C)CN([C@H](C)CO)C(=O)c2cc(NC(=O)C3CCCCC3)ccc2O1, the relative growth was inactive: 1.03. COc1ccc(NC(=O)N(C)C[C@H]2OCCCC[C@H](C)Oc3ccc(NC(=O)c4ccncc4)cc3C(=O)N([C@@H](C)CO)C[C@@H]2C)cc1 was tested, and the relative growth was inactive: 0.978. In the case of C=CCOC(=O)[C@H]1[C@@H]2C(=O)O[C@@H](c3ccccc3)[C@@H](c3ccccc3)N2[C@@H](c2ccc(OCCOC(=O)[C@@H]3C[C@@H]4C(=O)N[C@@H](CC(C)C)C(=O)N4[C@@H]3c3cccc(OCCO)c3)cc2)[C@]12C(=O)Nc1ccc(I)cc12, the relative growth is reported as inactive: 1.05. With NC(=S)c1cnc(-c2ccncc2)nc1N the relative growth was inactive: 0.953. C[C@@H]1CN([C@@H](C)CO)C(=O)c2cc(NS(=O)(=O)c3cn(C)cn3)ccc2O[C@@H](C)CCCCO[C@@H]1CN(C)Cc1ccc(C(F)(F)F)cc1 was tested, and the relative growth was inactive: 1. In the case of C[C@@H]1CN([C@H](C)CO)C(=O)c2cccc(NC(=O)Nc3ccc4c(c3)OCO4)c2O[C@H]1CN(C)Cc1ccc(-c2ccccc2)cc1, the relative growth is reported as inactive: 0.967. COc1ccc(NC(=O)N(C)C[C@@H]2Oc3ccc(NC(=O)Nc4ccc(C(F)(F)F)cc4)cc3CC(=O)N([C@@H](C)CO)C[C@H]2C)cc1 was tested, and the relative growth was inactive: 1.03. In the case of CN(C)CCC(=O)N1CCNCC1, the relative growth is reported as inactive: 1.04. C[C@H]1CN([C@@H](C)CO)C(=O)Cc2cc(NS(C)(=O)=O)ccc2O[C@H]1CN(C)C(=O)NC1CCCCC1 was tested, and the relative growth was inactive: 0.979. In the case of COc1ccc([Si](C)(C)[C@H]2[C@H](CC(=O)N(CCO)Cc3ccccc3)O[C@@]3(C(=O)N(Cc4cccc(N5C(=O)c6cccc7cccc5c67)c4)c4ccccc43)[C@@H]2C)cc1, the relative growth is reported as inactive: 1.03. O=C(O)c1cnns1 was tested, and the relative growth was inactive: 1.01. For CCCCCCO[C@@H](C)c1cccc(-c2csc(NC(=O)c3cc(Cl)c(/C=C(\C)C(=O)O)c(Cl)c3)n2)c1OC, the relative growth was inactive: 0.777. With O=[N+]([O-])c1ccc2nc(CO)[nH]c2c1 the relative growth was inactive: 0.985. CC(C)(C)OC(=O)Nc1cccc([C@@H]2CC(=O)N(C(=O)OCc3ccccc3)[C@@H]2C(=O)Nc2cccc3cccnc23)c1 was tested, and the relative growth was inactive: 0.996. For CNC[C@@H]1Oc2ccc(NC(=O)CCN3CCOCC3)cc2CC(=O)N([C@@H](C)CO)C[C@@H]1C, the relative growth was inactive: 1.03.
